The source of these data is PubChem BioAssay AID463173 (ICCB-Longwood Screening Facility, Harvard Medical School, 2010).

SMILES strings stand for the structures. In all, about 52,000 compounds went through this assay and about 1,700 (3.3%) were called active. No stated cut-off is given here; in the data, active means survival mostly below about 52% (no sharp cut-off); inactive means mostly above about 56%. The list shows a part of the results.

This assay has as its system Wild type. The assay is described as follows: S. aureus survival, RN4220 and DeltatarO strains – OD600, teichoic acid synthesis inhibitors, primary screen (AID 463173). The settings on record: S. aureus RN4220 wild type/DeltatarO growth, OD600, 18 h, stronger effect = lower value, screened at 18.75 µg/mL (by protocol).
`COc1ccc(-c2cc(C(F)(F)F)nc(SCCC(=O)Nc3c(C)cccc3C)n2)cc1`: the survival was inactive: 77%.

For the compound `Cc1ccc(OCC(=O)Nc2ccc(C(=O)OCc3cc(=O)n4c(C)csc4n3)cc2)cc1`, the survival is inactive: 136%.

As for `COc1ccc(-c2onc(C)c2C)cc1S(=O)(=O)NC1CCC(C)CC1` (stereo not given), the survival was inactive: 56%.

As for `O=C(Nc1ccc(F)cc1F)c1ccc(-n2cnnc2)cc1`, the survival was inactive: 69%.

As for `Cc1cccc(NC(=O)CSc2cc(C)c3ccccc3n2)c1`, the survival was inactive: 78%.

In the case of `Cc1cc(-n2c(C)nc3ccccc3c2=O)ccc1NC(=O)c1cccc([N+](=O)[O-])c1`, the survival is inactive: 83%.

As for `Cc1ccc(-n2c(=O)c3oc4ccccc4c3n(CC(=O)Nc3ccccc3)c2=O)cc1C`, the survival is inactive: 75%.

With `Cc1ccc(Cn2c(CNC(=O)c3ccccc3Br)nc3cccnc32)cc1`, the survival was inactive: 129%.

Regarding `CCc1ccccc1NC(=O)Cc1c(C(=O)O)[nH]c2ccc(Cl)cc12`, the survival was inactive: 73%.

Regarding `COc1ccc(N2CCN(C(=O)Nc3cccc(C(F)(F)F)c3)CC2)cc1`, the survival was inactive: 141%.

As for `CC(C)CNC(=O)C1=CC(c2ccc3c(c2)OCO3)=NS(=O)(=O)N1C`, the survival is inactive: 83%.

In the case of `COC(=O)CSc1nnc(CNc2ccc(Cl)cc2)n1-c1ccc(OC)cc1`, the survival is inactive: 105%.

On to `Oc1c(C(c2ccccc2)N2CCN(c3ccccc3)CC2)sc2nc(-c3ccco3)nn12` (stereo not given), for which the survival is inactive: 121%.

In the case of `O=C(NCCc1ccccc1)C(=O)Nc1cccc(Br)c1`, the survival is inactive: 89%.

For the compound `CCOC(=O)c1c(NC(=O)c2cc(-c3ccc(OC)cc3)on2)sc(C)c1C`, the survival was inactive: 76%.

`O=C(CSc1nc(=O)[nH]c2c1CCC2)NCc1ccccc1`: the survival is inactive: 60%.

On to `Cn1c(CCNC(=O)c2ccco2)nc2cc(NC(=O)COc3ccc(Cl)cc3)ccc21`, for which the survival is inactive: 98%.

For `O=C(CN(c1ccccn1)S(=O)(=O)c1ccccc1)N=Nc1c(O)[nH]c2ccccc12`, the survival was inactive: 108%.

Consider `Cc1ccc(C(=O)COC(=O)CCC(=O)Nc2ccc(Oc3ccccc3)cc2)cc1C`, for which the survival was inactive: 71%.

Consider `Cc1ccc(Cl)cc1N1CCN(C(=O)C2CCN(Cc3nc(-c4cccc(Cl)c4)oc3C)CC2)CC1`, for which the survival is active: -4%.

`COc1ccc(CNC(=O)Cc2csc3nc(-c4ccc(C)cc4)cn23)cc1`: the survival is inactive: 69%.

With `COC(=O)CC1Oc2ccccc2-n2cc(-c3ccc(Cl)cc3)nc21` (stereo not given), the survival is inactive: 101%.

In the case of `Cc1ccccc1C(=O)Nc1nnc(S(=O)(=O)N2CCCCCC2)s1`, the survival is inactive: 63%.

Turning to `CCOC(=O)c1ccc(Nc2cc(-c3ccccc3)nc(C)n2)cc1`, the survival is inactive: 83%.

On to `COc1ccc(-n2nc(C(=O)NCCc3cccc(C)c3)c3c4ccccc4n(C)c3c2=O)cc1Cl`, for which the survival was inactive: 78%.
